Measurements from the supplement of paper PMC12632987.
The full ranking holds about 1,800 sequences; the median of “median log2 fold change of GCK-ALFA target abundance (FLAG IP / Myc IP barcode read proportion)” is about 0.14, and the lowest 2% start at about -0.84. This is one part of the list.

T1: TRAF2, Q12933
T1 chain: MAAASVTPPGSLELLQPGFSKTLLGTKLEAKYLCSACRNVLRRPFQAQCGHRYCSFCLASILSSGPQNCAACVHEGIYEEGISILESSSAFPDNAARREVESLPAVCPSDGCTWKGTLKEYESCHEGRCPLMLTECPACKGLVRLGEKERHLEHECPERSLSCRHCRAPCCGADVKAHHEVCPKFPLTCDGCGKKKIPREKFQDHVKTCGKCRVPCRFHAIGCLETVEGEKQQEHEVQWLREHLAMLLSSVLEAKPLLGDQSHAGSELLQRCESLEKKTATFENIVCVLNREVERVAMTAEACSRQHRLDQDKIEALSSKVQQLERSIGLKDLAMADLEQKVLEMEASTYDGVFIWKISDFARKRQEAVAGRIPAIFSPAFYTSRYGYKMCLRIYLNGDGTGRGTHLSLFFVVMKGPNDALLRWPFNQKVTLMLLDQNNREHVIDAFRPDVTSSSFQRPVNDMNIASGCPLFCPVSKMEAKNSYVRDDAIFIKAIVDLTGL

B1: traf2_out_5_192_2333 (protein)
chain: GPEEEERKKKIEEKAKKEVEELLKKIKEALKEKSLEEAKEFGLHLTGVLIAKAKSLEELEALAEEVAKAQKKVDPEIAEILDGARTLIEGVIRAEKRLEE
B2: traf2_out_12_187_972 (protein)
chain: SVQDELIRAAREALRQALKALREEAPRDPRFQEFLERLERAAELLEKHPSVAADLAVAASLILRAVRLRRAGLPQEEIDAAAEAAREELEAVLARLEALQ
B3: traf2_out_11_169_875 (protein)
chain: KEAEFNRKLNDFALELNDKAKEELKKFALKLAKEAGLNVEEIKKIFEKNKNKSLSAVASALIKYFKSKGKEEEAEKILKKYEELKDEINKKTSEKIKELE
B4: traf2_out_18_167_1834 (protein)
chain: EEEIEKKKNELLDEMIKESEIRRAARELLEALERDPEEAEKAWAKLKEVLSDNPELQAKIAAIEKLPPEERRKAARAFAEELAEETQRKMNELWKKYEEL
B5: traf2_out_6_3_2508 (protein)
chain: EEEEERKRNEEALKEAAEMSLETIETAAKTTLKELKKAVEDPNATESDFLAYDSALNTLIKIMEEHAKLNPEEKEKAEKFIEELKKERDKLIKEWKEKRK
B6: traf2_out_11_155_744 (protein)
chain: ERRRKLLQEMNDKIMDLFEKAREEALKIVEEAAEKYPEHKEELEKLIEKTKGFSYRSFILEMIRKFEELGLEEEAAKLKELLEKTQKEANEIVQKTEKEL
B7: traf2_out_20_3_2266 (protein)
chain: EELLKKYEEELEKAKKILEEIIKESDPETAKKLEEALKLLEESKKVSPTDALVLLGEAKRIVRELAEEARKAGNEELAAKLEEAADEINKAMGYLLKIIE
B8: traf2_out_6_156_2439 (protein)
chain: SVDDILAETEAELTALIKALAAASPERKIFYINRIAGTVYRALQRLREGGASLEELRAFAERVRAHVEAALKEAGLDEETRNLVLSSLDAVFDVALASAA
B9: traf2_out_11_155_669 (protein)
chain: EEKQKLNNELVNELTKVSDELKEKVIKILKEAAEKHPEHKEEIEKVIESSKTLSGTSFARKAAQLFKELGLEEEAKKVEELLEEAQKKMNEIYKKYEKKL
B10: traf2_out_19_16_1992 (protein)
chain: SKEEAKELKEKMKKYLEEALKLAEETVARLDELSREELMDKLVEISELMRKAKELLEKYLELNKDDEEERKEVEEEFEEKEERIQRLMTIIVDRILELLK
B11: traf2_out_17_178_1725 (protein)
chain: SKEEILKKISELADKRFDVNHAAMDELRAIAEAEGVLTPELAARLDEVHRTSNLYALEEVADELIARTASADRVAALREKTSAELRELDKKIQEAVEKLE
B12: traf2_out_13_95_1086 (protein)
chain: SKEVNEKIMEIADEMMEQILATLDALAKQVAGDPELAAAVAEARRLAETRGVNEAIHKLRELAKANPEHAELLNAAIAEIEAIKKEASKKISELLKEEEE
B13: traf2_out_13_95_1113 (protein)
chain: SKELAEKIMEIADEALDKANALLDDLEAQIKASGKLKPEVEAALAAAKKSTISTAIHTLQELAKEYPEFKELFDATIAQLEEIRREAGRKVAELIKEEKE
B14: traf2_out_11_169_800 (protein)
chain: EEAEKNRKINDKALELNDEAKKKLLEHALKLAKEAGLDVEEVKKIYEKNKNRSLSYVASELIRYFKEKGKEEEAKAVLAKYEELKDEINKEMTKFIKELE
B15: traf2_out_1_27_1024 (protein)
chain: SDEELQKLIKETQKKIAEVNLEEAKKIVKEALKEAYKMGLSDAMMLARTLIASQLDVERAKAIAEAAIEAFKELGVPQEKIDELKKVAESILKLIEKQKK
B16: traf2_out_16_104_1374 (protein)
chain: AAALEAELEAARAELEAALEELGRAMNELYLKYQRASPEERVRLSDVLVDASAARRRALEVLEEVDREVAAGGDLRELIERLRAALAEVRAALARVRAAL
B17: traf2_out_6_3_2504 (protein)
chain: SDEEERKRNEEALELASEMSFETLKRAADTTLERLKKAVADPNASESDVLALASALNTILEIIRKNAEKNPEKKEEAEKYIEEREKELEKLLKEWEEKRK
B18: traf2_out_3_89_2306 (protein)
chain: SSAREKTIEEMRKRMEAYIKGFEKSAKYVMKEMLKDGMSLETIEGVLKAARTALLEELRETMKEKGLSEEEIEKLLKEAKEKLDKVVKEVVEEAKKEREK
B19: traf2_out_13_95_1210 (protein)
chain: EKEKTEKLREFTNEIADKLIDFVEKKAEEIEKATGNKEYKEDILSALRRYGVRAAVALIKKYAEEDPEYAEVYKKAAEEAEKKIREAGREAAKKDKEIEE

Biological target: T1, TRAF2, Q12933
Experiment: median log2 fold change of GCK-ALFA target abundance (FLAG IP / Myc IP barcode read proportion) (log2 ratio); each designed protein is fused to an ALFA-tag nanobody in HEK293 cells to bring the named protein to FLAG-tagged glucokinase (GCK); Myc marks an untargeted standard; higher = target protein stabilised (more abundant)
Conditions: target protein: 3xFLAG-MCP-GCK-ALFA reporter; HEK293 landing pad (RPLP)
How it was run: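 Sequencing of reverse-transcribed, amplified circular RNA barcodes from anti-FLAG and anti-Myc immunoprecipitates provided the readout for an ALFA-nanobody-fused binder library recombined into HEK293 landing-pad cells. Those cells were induced with 2 μg mL^−1 doxycycline, transfected with a plasmid expressing a FLAG-tagged target and a Myc-tagged standard, and lysed after 48 h. Target abundance is the per-binder median log2 ratio of FLAG to Myc barcode read proportions. Only barcodes at a proportion of ≥10^−7 in both replicates and binders with ≥3 barcodes per replicate were kept, with a 10^−6 pseudocount added before the two replicates were pooled.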

Row | Binder | median log2 fold change
1 | B1 | 0.167
2 | B2 | 0.148
3 | B3 | -0.0661
4 | B4 | 0.204
5 | B5 | -0.238
6 | B6 | 0.235
7 | B7 | 0.464
8 | B8 | 0.129
9 | B9 | 0.305
10 | B10 | -0.0614
11 | B11 | 0.348
12 | B12 | -0.0311
13 | B13 | 0.0328
14 | B14 | -0.104
15 | B15 | 0.141
16 | B16 | 0.173
17 | B17 | 0.197
18 | B18 | -0.595
19 | B19 | 0.281
